Data from the supplement of paper PMC10126150.
Sequences with one replicate were seen in a single cluster, so their values are uncertain.
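Further: ATP exposure 15 min at 22 °C before imaging.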

What follows are sequences tested on ATP (assay: switch fluorescence ratio, 500 uM ATP over buffer (Cy3 cluster intensity, sum of 5 cycles each) (fold (ratio)); higher = stronger signal-on switching upon ATP binding; sequences stand for … in TCGTCGGCAGCGTCAGATGTGTATAAGAGACAGTTTTTTTTTTTTTTTTTTTTTTTTT…TC). Settings: aptamer strand: ATP DNA aptamer (quencher-CACCTGGGGGAGTATTGCGGAGGAAGG + anchor), 100 nM annealed; ATP concentration: 500 uM; one replicate.
Method in brief: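 Cy3-labelled switching-strand clusters on a modified Illumina MiSeq flow-cell were annealed to 100 nM quencher-labelled ATP aptamer and imaged first in selection buffer, then after 15 min with 500 uM ATP at 22 °C. NaOH stripping and re-annealing separated each of five buffer/ATP cycles, and clusters outside 100-1000 RFU were excluded. The fluorescence ratio sums target-cycle Cy3 intensity over buffer-cycle Cy3 intensity per cluster and averages it per switch-domain sequence.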
With TTCAATTCGT the switch fluorescence ratio was 1.03. In the case of TTCACAAGTT, the switch fluorescence ratio is reported as 1. In the case of TTCACCAATC, the switch fluorescence ratio is reported as 1.04. TTCACGAAGT gave a switch fluorescence ratio of 1.04. TTCACGGAAT was tested, and the switch fluorescence ratio was 1.15. With TTCACGGACA the switch fluorescence ratio was 1.45. Work on TTCACGGTAG yielded a switch fluorescence ratio of 1.01. In the case of TTCACGGTT, the switch fluorescence ratio is reported as 1.06. TTCACTACTC was tested, and the switch fluorescence ratio was 1.18. TTCACTCGTG showed a switch fluorescence ratio of 1.01. TTCACTGGCC showed a switch fluorescence ratio of 1.03. In the case of TTCAGACGAC, the switch fluorescence ratio is reported as 1.11. With TTCAGCCCGT the switch fluorescence ratio was 1.01. In the case of TTCAGGATCG, the switch fluorescence ratio is reported as 0.999. In the case of TTCAGGCTAG, the switch fluorescence ratio is reported as 0.971. For TTCAGGGGA, the switch fluorescence ratio was 1.04. For TTCATAAACG, the switch fluorescence ratio was 1.03. TTCATAAAGG was tested, and the switch fluorescence ratio was 1.06. In the case of TTCATTCAGT, the switch fluorescence ratio is reported as 0.973. Work on TTCATTCGAT yielded a switch fluorescence ratio of 0.999. For TTCCACAGCC, the switch fluorescence ratio was 1.55. In the case of TTCCACCTTG, the switch fluorescence ratio is reported as 1.18. For TTCCACGTAC, the switch fluorescence ratio was 1.93. TTCCACTGGA was tested, and the switch fluorescence ratio was 1.03. With TTCCAGAGCT the switch fluorescence ratio was 1.7. Sequence TTCCAGCTAT has a switch fluorescence ratio of 1.16. TTCCAGGGTA was tested, and the switch fluorescence ratio was 1.2. TTCCAGTA showed a switch fluorescence ratio of 1.03. TTCCATGTAA gave a switch fluorescence ratio of 1. TTCCCATAAC was tested, and the switch fluorescence ratio was 1.23. TTCCCCCGGG was tested, and the switch fluorescence ratio was 1.06. With TTCCCGCATT the switch fluorescence ratio was 1.2. TTCCCTGGTC showed a switch fluorescence ratio of 1.58. TTCCGAGGGT was tested, and the switch fluorescence ratio was 0.994. TTCCGAGTCT showed a switch fluorescence ratio of 1.12. TTCCGATCAG was tested, and the switch fluorescence ratio was 2.05. Sequence TTCCGATCT has a switch fluorescence ratio of 1.48. In the case of TTCCGATGGG, the switch fluorescence ratio is reported as 1.11. TTCCGCACTA was tested, and the switch fluorescence ratio was 1.47. Work on TTCCGCGCA yielded a switch fluorescence ratio of 3.74. TTCCGTGGCA was tested, and the switch fluorescence ratio was 1.59. TTCCTGCTGT gave a switch fluorescence ratio of 1.01. In the case of TTCCTGGTG, the switch fluorescence ratio is reported as 2.22. TTCCTTCTCC was tested, and the switch fluorescence ratio was 1.39. Work on TTCCTTGCTA yielded a switch fluorescence ratio of 1.92. TTCCTTGTGA gave a switch fluorescence ratio of 1.03. TTCCTTTGTT was tested, and the switch fluorescence ratio was 1.01. TTCGACAATT showed a switch fluorescence ratio of 0.989. TTCGACAGTT gave a switch fluorescence ratio of 1.01. Work on TTCGAGCGGT yielded a switch fluorescence ratio of 1.03. TTCGAGGGAA showed a switch fluorescence ratio of 1.32. TTCGAGTACG showed a switch fluorescence ratio of 1.08. TTCGAGTGGC was tested, and the switch fluorescence ratio was 0.944. Work on TTCGAGTTGA yielded a switch fluorescence ratio of 0.994. For TTCGATACTG, the switch fluorescence ratio was 1.06. With TTCGATGTAC the switch fluorescence ratio was 1.41. For TTCGCAGAAA, the switch fluorescence ratio was 1.04. TTCGCAGGGG showed a switch fluorescence ratio of 3.04. Work on TTCGCTAAT yielded a switch fluorescence ratio of 1.19. TTCGCTGGTC gave a switch fluorescence ratio of 1.13. Sequence TTCGGAACTC has a switch fluorescence ratio of 1.06. With TTCGGAGAGC the switch fluorescence ratio was 0.945. With TTCGGAGCCG the switch fluorescence ratio was 1.1. TTCGGATCGT showed a switch fluorescence ratio of 1.23. With TTCGGGAAGG the switch fluorescence ratio was 0.973. With TTCGGGACT the switch fluorescence ratio was 1.02. TTCGGGCGC showed a switch fluorescence ratio of 0.995. In the case of TTCGGGGATC, the switch fluorescence ratio is reported as 0.975. TTCGGGGCAA was tested, and the switch fluorescence ratio was 1.01. TTCGGGTTCC gave a switch fluorescence ratio of 1.3. TTCGGTATAT showed a switch fluorescence ratio of 1.01. For TTCGGTGTAG, the switch fluorescence ratio was 1.04. With TTCGTAAGAT the switch fluorescence ratio was 1.08. Sequence TTCGTCCGCC has a switch fluorescence ratio of 2.16. TTCGTCTGAC was tested, and the switch fluorescence ratio was 1.03. TTCGTGACTC showed a switch fluorescence ratio of 1. Sequence TTCGTGTCGT has a switch fluorescence ratio of 1.02. TTCGTTCCTC was tested, and the switch fluorescence ratio was 1.42. Work on TTCGTTGGTT yielded a switch fluorescence ratio of 1.03. Work on TTCTAACGTT yielded a switch fluorescence ratio of 0.996. With TTCTAATTGC the switch fluorescence ratio was 0.977. Sequence TTCTACCAAA has a switch fluorescence ratio of 1.09. Work on TTCTACTTTA yielded a switch fluorescence ratio of 1.11. In the case of TTCTAGGCGT, the switch fluorescence ratio is reported as 0.986. TTCTAGGTGC gave a switch fluorescence ratio of 1.46. With TTCTAGTATA the switch fluorescence ratio was 0.984. In the case of TTCTAGTCGC, the switch fluorescence ratio is reported as 0.943. TTCTAGTGTT was tested, and the switch fluorescence ratio was 0.986. Sequence TTCTAGTTTG has a switch fluorescence ratio of 1. TTCTATGCCG gave a switch fluorescence ratio of 1.08. TTCTATTAGC was tested, and the switch fluorescence ratio was 0.987. TTCTATTAGG was tested, and the switch fluorescence ratio was 0.993. TTCTCAACCT was tested, and the switch fluorescence ratio was 1.67. For TTCTCAAGTC, the switch fluorescence ratio was 0.985. With TTCTCAATGG the switch fluorescence ratio was 0.998. TTCTCAGT gave a switch fluorescence ratio of 1.01. Sequence TTCTCATGGT has a switch fluorescence ratio of 0.976. Sequence TTCTCATGTA has a switch fluorescence ratio of 0.944. With TTCTCATTG the switch fluorescence ratio was 0.995. With TTCTCCCGAG the switch fluorescence ratio was 1.15. In the case of TTCTCGAATA, the switch fluorescence ratio is reported as 1.01. With TTCTCGGAAA the switch fluorescence ratio was 0.999. For TTCTCGTCCT, the switch fluorescence ratio was 1.01. Work on TTCTGACTCG yielded a switch fluorescence ratio of 1.02. For TTCTGAGGTT, the switch fluorescence ratio was 0.994. For TTCTGATACT, the switch fluorescence ratio was 1.03. Work on TTCTGATCGC yielded a switch fluorescence ratio of 0.995. TTCTGCTAGC gave a switch fluorescence ratio of 1.07. TTCTGGCAAC was tested, and the switch fluorescence ratio was 1.15. TTCTGGCCTT was tested, and the switch fluorescence ratio was 1.07. Work on TTCTGGGCAA yielded a switch fluorescence ratio of 1.73. Sequence TTCTGGGTT has a switch fluorescence ratio of 1.03. In the case of TTCTGTAGAA, the switch fluorescence ratio is reported as 0.977. Work on TTCTGTCGGC yielded a switch fluorescence ratio of 1.38. Sequence TTCTGTCGGG has a switch fluorescence ratio of 0.971. For TTCTGTGGCT, the switch fluorescence ratio was 1.02. TTCTGTTCA showed a switch fluorescence ratio of 1.03. With TTCTTAGCGC the switch fluorescence ratio was 1.02. In the case of TTCTTCCTTC, the switch fluorescence ratio is reported as 1.43. With TTCTTGAACA the switch fluorescence ratio was 1.02. Sequence TTCTTGATGC has a switch fluorescence ratio of 1.23. For TTCTTTCTAA, the switch fluorescence ratio was 0.957. TTGAAAAATA gave a switch fluorescence ratio of 0.954. With TTGAAAACAA the switch fluorescence ratio was 0.979. Sequence TTGAAAAGTA has a switch fluorescence ratio of 0.979. With TTGAAAATTG the switch fluorescence ratio was 0.999. Sequence TTGAAAGGAC has a switch fluorescence ratio of 1.03. TTGAAAGTCC gave a switch fluorescence ratio of 1.31. TTGAACGGCT was tested, and the switch fluorescence ratio was 1. With TTGAACTTTT the switch fluorescence ratio was 0.998. Sequence TTGAAGCATA has a switch fluorescence ratio of 1.19. Sequence TTGAAGCTCT has a switch fluorescence ratio of 0.99. Sequence TTGAATCAGG has a switch fluorescence ratio of 1.04. Work on TTGAATTCAT yielded a switch fluorescence ratio of 0.982. TTGACAACGC showed a switch fluorescence ratio of 0.995. TTGACACCTA showed a switch fluorescence ratio of 1.02. With TTGACCACGT the switch fluorescence ratio was 0.987. Work on TTGACCAGAA yielded a switch fluorescence ratio of 1.02. In the case of TTGACCGTAT, the switch fluorescence ratio is reported as 1.05. In the case of TTGACGACGA, the switch fluorescence ratio is reported as 1.25. With TTGACGCGGT the switch fluorescence ratio was 1.34. TTGACTCTG gave a switch fluorescence ratio of 1.1. Sequence TTGACTGAG has a switch fluorescence ratio of 1.03. Work on TTGAGGAGAA yielded a switch fluorescence ratio of 0.955. In the case of TTGAGGCCCC, the switch fluorescence ratio is reported as 0.988. With TTGAGGTATC the switch fluorescence ratio was 0.966. TTGAGTAATA gave a switch fluorescence ratio of 1.05. For TTGAGTTCAC, the switch fluorescence ratio was 0.94. In the case of TTGATACCCC, the switch fluorescence ratio is reported as 1.45. TTGATACGTT showed a switch fluorescence ratio of 1.02. TTGATATCAA gave a switch fluorescence ratio of 1.03. Sequence TTGATCGAAC has a switch fluorescence ratio of 1.05. Work on TTGATCGAAT yielded a switch fluorescence ratio of 0.944. TTGATCTCTA showed a switch fluorescence ratio of 1.04. In the case of TTGATGAGC, the switch fluorescence ratio is reported as 0.964. With TTGATGATCT the switch fluorescence ratio was 0.979. Work on TTGATGCAGT yielded a switch fluorescence ratio of 0.973. TTGATTCGTC showed a switch fluorescence ratio of 0.999. TTGATTGACG gave a switch fluorescence ratio of 0.959. TTGATTGGTG was tested, and the switch fluorescence ratio was 1.04. Work on TTGATTGT yielded a switch fluorescence ratio of 0.996. Sequence TTGCACGAGG has a switch fluorescence ratio of 1.02. For TTGCACGCTC, the switch fluorescence ratio was 1.07. In the case of TTGCACTCAT, the switch fluorescence ratio is reported as 1.04. In the case of TTGCAGCTGA, the switch fluorescence ratio is reported as 1.04. TTGCAGGGAT was tested, and the switch fluorescence ratio was 1.69. Work on TTGCAGGTTA yielded a switch fluorescence ratio of 1.01. TTGCATCAAC was tested, and the switch fluorescence ratio was 1.05. In the case of TTGCCAATTG, the switch fluorescence ratio is reported as 0.975. TTGCCCAACG showed a switch fluorescence ratio of 1. TTGCCGCGGG was tested, and the switch fluorescence ratio was 0.971. Sequence TTGCCGTCCT has a switch fluorescence ratio of 1.01. Work on TTGCCGTGTC yielded a switch fluorescence ratio of 0.982. For TTGCGAGCAC, the switch fluorescence ratio was 1.15. With TTGCGATCCA the switch fluorescence ratio was 1.03. Sequence TTGCGATCGC has a switch fluorescence ratio of 0.95. Work on TTGCGCACTT yielded a switch fluorescence ratio of 0.951. In the case of TTGCGCGGA, the switch fluorescence ratio is reported as 0.996. With TTGCGCTGAG the switch fluorescence ratio was 1.02. TTGCGCTGGC gave a switch fluorescence ratio of 1.13. Sequence TTGCGGCAGT has a switch fluorescence ratio of 0.986. TTGCGGGGA showed a switch fluorescence ratio of 1.01. TTGCGGTACA gave a switch fluorescence ratio of 1.37. TTGCGTGACA was tested, and the switch fluorescence ratio was 0.993. Sequence TTGCGTTCTA has a switch fluorescence ratio of 0.993. For TTGCTAACAA, the switch fluorescence ratio was 0.976. Work on TTGCTACGC yielded a switch fluorescence ratio of 1.22. TTGCTATAAG was tested, and the switch fluorescence ratio was 0.995. TTGCTCAGAG gave a switch fluorescence ratio of 1.03. In the case of TTGCTCCGCC, the switch fluorescence ratio is reported as 1.02. With TTGCTGAGGT the switch fluorescence ratio was 1. Work on TTGCTTATGC yielded a switch fluorescence ratio of 1.06. In the case of TTGCTTCAGA, the switch fluorescence ratio is reported as 0.976. Sequence TTGCTTTAGG has a switch fluorescence ratio of 1.02. Work on TTGGAAGGCT yielded a switch fluorescence ratio of 1.13. With TTGGAATATC the switch fluorescence ratio was 1.09. For TTGGAGACTA, the switch fluorescence ratio was 1.15. Work on TTGGAGCGGC yielded a switch fluorescence ratio of 1.24. TTGGAGGAGG was tested, and the switch fluorescence ratio was 1. Sequence TTGGAGTACG has a switch fluorescence ratio of 1.02. For TTGGAGTGCC, the switch fluorescence ratio was 1.07.
